Reference: patent publication US20250066451A1 (SWEDISH ORPHAN BIOVITRUM AB PUBL, published 2025)
Where two headings read alike, the source gives them in different places. Each block holds one binder with its values, some of them ahead of it.

Key:
[1] = target: T1, human IL-1R-I on Normal Human Dermal Fibroblasts (NHDF) cells (human, UniProt P14778 18-569); test: cell-based or functional assay
T1 sequence (looked up): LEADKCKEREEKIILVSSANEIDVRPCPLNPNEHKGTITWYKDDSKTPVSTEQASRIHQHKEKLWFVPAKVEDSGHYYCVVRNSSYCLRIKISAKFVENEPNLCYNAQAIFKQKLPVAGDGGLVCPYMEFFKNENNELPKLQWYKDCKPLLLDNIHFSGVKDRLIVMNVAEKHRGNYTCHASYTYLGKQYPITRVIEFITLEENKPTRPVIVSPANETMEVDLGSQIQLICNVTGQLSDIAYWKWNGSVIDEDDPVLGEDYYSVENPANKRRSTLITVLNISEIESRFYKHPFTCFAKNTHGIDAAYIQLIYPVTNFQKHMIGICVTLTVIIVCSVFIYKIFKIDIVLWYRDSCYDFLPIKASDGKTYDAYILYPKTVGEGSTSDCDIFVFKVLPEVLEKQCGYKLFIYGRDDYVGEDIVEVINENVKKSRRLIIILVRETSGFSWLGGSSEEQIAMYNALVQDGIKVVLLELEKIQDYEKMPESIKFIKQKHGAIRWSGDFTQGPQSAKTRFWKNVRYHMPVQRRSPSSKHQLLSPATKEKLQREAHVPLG

[2] = target: T2, biotinylated FCγR3A (Sino Biological) (UniProt P08637 17-208, biotinylated); test: Biolayer interferometry, biotinylated FCγR3A on streptavidin sensor
T2 construct: Immobilised on a streptavidin biosensor
Text: In addition Human IgG (GammaNorm, Octapharma) was used as control in the measurements.

[3] = target: T1, human IL-1R-I on Normal Human Dermal …; test: cell-based or functional assay; remark: listed apart in the source
[4] = target: T3, Human IL-1R-I-Fc (Creative BioMart cat. no. IL1RI-771H) (human, UniProt P14778 18-332, limits assumed); test: ELISA titration; Z-ABD periplasmic extract, hIL-1R-I-Fc 100-0.01 nM
T3 construct: Bought protein; also called hIL-1R-I-Fc; hIL-1RI-Fc; not shown: Fc part of the bought fusion
T3 sequence (looked up): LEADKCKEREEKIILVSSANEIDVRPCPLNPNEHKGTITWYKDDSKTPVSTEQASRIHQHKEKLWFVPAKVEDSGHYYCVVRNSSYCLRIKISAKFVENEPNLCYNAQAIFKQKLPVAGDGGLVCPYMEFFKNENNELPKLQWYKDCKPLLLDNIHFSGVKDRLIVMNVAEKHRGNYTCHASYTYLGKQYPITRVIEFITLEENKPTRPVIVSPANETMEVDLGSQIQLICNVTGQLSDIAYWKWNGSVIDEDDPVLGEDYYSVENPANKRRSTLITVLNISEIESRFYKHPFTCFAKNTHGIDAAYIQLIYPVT

[5] = target: T3, Human IL-1R-I-Fc (Creative BioMart cat. …); test: ELISA titration (Example 4); Z-ABD periplasmic extract, hIL-1R-I-Fc 100-0.01 nM
[6] = target: T3, Human IL-1R-I-Fc (Creative BioMart cat. …); test: ELISA titration (Example 8); Z-ABD periplasmic extract, hIL-1R-I-Fc 20-0.002 nM
[7] = target: T4, Human IL-1R-I (RnD Systems cat. no. 269-1R/CF) (human, UniProt P14778 18-332, limits assumed); test: Biacore T200 kinetic screening; Z-ABD captured on anti-ABD antibody, 100 nM hIL-1R-I injected
T4 construct: Bought recombinant protein; also called hIL-1R-I; hIL-1RI
T4 sequence (looked up): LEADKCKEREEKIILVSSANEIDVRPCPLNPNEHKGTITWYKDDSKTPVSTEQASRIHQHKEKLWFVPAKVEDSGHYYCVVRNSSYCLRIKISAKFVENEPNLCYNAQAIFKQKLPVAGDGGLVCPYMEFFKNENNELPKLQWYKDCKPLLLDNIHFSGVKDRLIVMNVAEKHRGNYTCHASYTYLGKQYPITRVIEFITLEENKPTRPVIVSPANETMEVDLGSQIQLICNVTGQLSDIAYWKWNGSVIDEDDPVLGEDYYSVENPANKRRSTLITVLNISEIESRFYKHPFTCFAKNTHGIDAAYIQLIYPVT

[8] = target: T4, Human IL-1R-I (RnD Systems cat. no. …); test: Biacore 2000 kinetic screening (Example 8); Z-ABD captured on anti-ABD antibody, 100 nM hIL-1R-I injected
[9] = target: T5, IL-1R-I on cells (TF-1 cells, NHDF cells, human whole blood) (human, UniProt P14778 18-569); test: cell-based or functional assay
T5 sequence (looked up): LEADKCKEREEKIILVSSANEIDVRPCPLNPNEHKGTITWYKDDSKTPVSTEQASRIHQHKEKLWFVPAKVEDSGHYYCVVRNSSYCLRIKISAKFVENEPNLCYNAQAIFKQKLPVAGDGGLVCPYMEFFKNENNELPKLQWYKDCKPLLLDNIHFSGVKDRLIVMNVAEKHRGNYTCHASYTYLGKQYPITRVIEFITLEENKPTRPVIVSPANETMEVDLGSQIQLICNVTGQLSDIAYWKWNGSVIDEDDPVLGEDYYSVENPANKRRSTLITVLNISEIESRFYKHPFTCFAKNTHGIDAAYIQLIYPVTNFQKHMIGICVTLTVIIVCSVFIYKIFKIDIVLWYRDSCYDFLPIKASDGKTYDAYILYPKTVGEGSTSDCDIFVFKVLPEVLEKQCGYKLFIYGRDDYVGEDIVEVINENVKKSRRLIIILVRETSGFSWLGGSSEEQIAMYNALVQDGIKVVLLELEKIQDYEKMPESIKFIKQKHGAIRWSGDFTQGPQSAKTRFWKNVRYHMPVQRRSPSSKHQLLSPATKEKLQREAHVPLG

[10] = target: T4, Human IL-1R-I (RnD Systems cat. no. …); test: Biacore 2000 SPR; hIL-1R-I immobilised on CM5, His6-Z at 40 and 10 nM, 1:1 model
Text: (§1) One flow cell surface on the chip was activated and deactivated for use as blank during analyte injections.

[11] = target: T6, cynomolgus IL-1R-I-His6 (cynomolgus, UniProt P14778 19-332 (human entry), limits assumed); test: Biacore 2000 SPR (Example 9); cIL-1R-I-His6 immobilised, His6-Z at 48, 12, 3 and 0.75 nM, 1:1 model
T6 construct: also called cIL-1R-I-His6
T6 chain: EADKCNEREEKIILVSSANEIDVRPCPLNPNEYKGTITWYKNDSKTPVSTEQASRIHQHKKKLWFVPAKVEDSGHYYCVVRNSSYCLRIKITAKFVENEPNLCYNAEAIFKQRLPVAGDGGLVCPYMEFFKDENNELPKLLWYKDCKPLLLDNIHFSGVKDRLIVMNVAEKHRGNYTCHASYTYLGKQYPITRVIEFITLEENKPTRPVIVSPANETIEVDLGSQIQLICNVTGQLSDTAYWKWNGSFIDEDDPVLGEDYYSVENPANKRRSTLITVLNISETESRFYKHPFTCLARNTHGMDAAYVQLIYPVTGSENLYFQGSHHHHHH
Text: as §1

[12] = target: T5, IL-1R-I on cells (TF-1 cells, NHDF …); test: cell-based or functional assay; remark: listed apart in the source
[13] = target: T4, Human IL-1R-I (RnD Systems cat. no. …); test: Biacore 2000 SPR (Example 9); hIL-1R-I immobilised, His6-Z at 48, 12, 3 and 0.75 nM, 1:1 model
Text: as §1

T2 sequence (P08637 17-208): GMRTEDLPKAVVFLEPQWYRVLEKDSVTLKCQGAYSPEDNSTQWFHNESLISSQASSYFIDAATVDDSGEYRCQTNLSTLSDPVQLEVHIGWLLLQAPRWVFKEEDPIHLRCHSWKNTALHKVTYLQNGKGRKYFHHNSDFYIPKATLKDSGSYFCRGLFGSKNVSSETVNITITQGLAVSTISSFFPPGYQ

B1: PSI0654 (Z18754[N297A]-LS-IgG1 Fc) (Fc fusion)
chain: AEAKYAKEVEEIQMEIFRLPNLTRRQYTAFIRKLLDDPSQSSELLSEAKKLSESQAPKASGGGGSGGGGSDKTHTCPPCPAPELLGGPSVFLFPPKPKDTLMISRTPEVTCVVVDVSHEDPEVKFNWYVDGVEVHNAKTKPREEQYASTYRVVSVLTVLHQDWLNGKEYKCKVSNKALPAPIEKTISKAKGQPREPQVYTLPPSRDELTKNQVSLTCLVKGFYPSDIAVEWESNGQPENNYKTTPPVLDSDGSFFLYSKLTVDKSRWQQGNVFSCSVLHEALHSHYTQKSLSLSPGK
IC50 (pM), inhibition of IL-1B induced IL-6 release in NHDF cells [1]: 2.9 pM

B3: PSI0654: Z18754[N297A]-LS-IgG1 Fc (Fc fusion)
chain: AEAKYAKEVEEIQMEIFRLPNLTRRQYTAFIRKLLDDPSQSSELLSEAKKLSESQAPKASGGGGSGGGGSDKTHTCPPCPAPELLGGPSVFLFPPKPKDTLMISRTPEVTCVVVDVSHEDPEVKFNWYVDGVEVHNAKTKPREEQYASTYRVVSVLTVLHQDWLNGKEYKCKVSNKALPAPIEKTISKAKGQPREPQVYTLPPSRDELTKNQVSLTCLVKGFYPSDIAVEWESNGQPENNYKTTPPVLDSDGSFFLYSKLTVDKSRWQQGNVFSCSVLHEALHSHYTQKSLSLSPGK
notes: Produced in CHO cells
binding result [2]: no binding (tested: 100 and 1000 nM)

B4: PSI0655: Z18754[N297A]-YTE-IgG1 Fc (Fc fusion)
chain: AEAKYAKEVEEIQMEIFRLPNLTRRQYTAFIRKLLDDPSQSSELLSEAKKLSESQAPKASGGGGSGGGGSDKTHTCPPCPAPELLGGPSVFLFPPKPKDTLYITREPEVTCVVVDVSHEDPEVKFNWYVDGVEVHNAKTKPREEQYASTYRVVSVLTVLHQDWLNGKEYKCKVSNKALPAPIEKTISKAKGQPREPQVYTLPPSRDELTKNQVSLTCLVKGFYPSDIAVEWESNGQPENNYKTTPPVLDSDGSFFLYSKLTVDKSRWQQGNVFSCSVMHEALHNHYTQKSLSLSPGK
notes: Produced in CHO cells
binding result [2]: no binding (tested: 100 and 1000 nM)

B5: PSI0589 (PSI0536[amino acids 1-86], dimeric) (designed binder)
chain: AEAKYAKEVEEIQMEIFRLPNLTRRQYTAFIRKLLDDPSQSSELLSEAKKLSESQAPKASGGGGSGGGGSDKTHTCPPCPAPELLG
IC50 (pM), inhibition of IL-1B induced IL-6 release in NHDF cells [3]: 1.8 pM

B7: Z16065 as Z-ABD fusion (periplasmic extract) (designed binder)
chain: AQHDEALEVDAKYAKEVEEAQMEIFALPNLTRRQYTAFIRKLLDDPSQSSELLSEAKKLNDSQAPKVDYVLAEAKVLANRELDKYGVSDYYKNLINNAKTVEGVKALIDEILAALPYVPG
EC50 [6]: 0.21 nM | Kd [8]: 7.5 nM

B9: Z18814 as Z-ABD fusion (periplasmic extract) (designed binder)
chain: AQHDEALEVDAKYAKEVEEIQMEIFALPNLTRRQYTAFIRKLLDDPSQSSELLSEAKKLNDSQAPKVDYVLAEAKVLANRELDKYGVSDYYKNLINNAKTVEGVKALIDEILAALPYVPG
fold higher affinity than Z16065 [8]: 3 fold

B11: His6-tagged Z18800 (designed binder)
chain: MGSSHHHHHHLQVDAKYAKEIEEIQMEIFRLPNLTRRQYTAFIRKLLDDPSQSSELLSEAKKLNDSQAPKVD
notes: also called His6-Z18800
Kd [11]: 3.3 nM

B15: His6-tagged Z18754 (designed binder)
chain: MGSSHHHHHHLQVDAKYAKEVEEIQMEIFRLPNLTRRQYTAFIRKLLDDPSQSSELLSEAKKLNDSQAPKVD
notes: also called His6-Z18754
Kd [11]: 2 nM

Further lines, results first:

IC50 (pM), inhibition of IL-1B induced IL-6 release in NHDF cells [1]: 5.9 pM
B2: PSI0655 (Z18754[N297A]-YTE-IgG1 Fc) (Fc fusion)
chain: AEAKYAKEVEEIQMEIFRLPNLTRRQYTAFIRKLLDDPSQSSELLSEAKKLSESQAPKASGGGGSGGGGSDKTHTCPPCPAPELLGGPSVFLFPPKPKDTLYITREPEVTCVVVDVSHEDPEVKFNWYVDGVEVHNAKTKPREEQYASTYRVVSVLTVLHQDWLNGKEYKCKVSNKALPAPIEKTISKAKGQPREPQVYTLPPSRDELTKNQVSLTCLVKGFYPSDIAVEWESNGQPENNYKTTPPVLDSDGSFFLYSKLTVDKSRWQQGNVFSCSVMHEALHNHYTQKSLSLSPGK

EC50 [4]: 0.17 nM | EC50 [5]: 0.24 nM | EC50 [6]: 0.26 nM | Kd [7]: 25 nM | Kd [8]: 27 nM
B6: Z12967 as Z-ABD fusion (periplasmic extract) (designed binder)
chain: AQHDEALEVDAKYAKEAHRAQMEIFALPNLTRRQYTAFIRKLLDDPSQSSELLSEAKKLNDSQAPKVDYVLAEAKVLANRELDKYGVSDYYKNLINNAKTVEGVKALIDEILAALPYVPG

EC50 [6]: 0.22 nM | Kd [8]: 13 nM
B8: Z16218 as Z-ABD fusion (periplasmic extract) (designed binder)
chain: AQHDEALEVDAKYAKEVTDAQMEIFALPNLTRKQYTAFIRKLLDDPSQSSELLSEAKKLNDSQAPKVDYVLAEAKVLANRELDKYGVSDYYKNLINNAKTVEGVKALIDEILAALPYVPG

IC50, inhibition of IL-1B induced proliferation of TF-1 cells [9]: 60 nM | Kd [10]: 15 nM
B10: His6-tagged Z12974 (designed binder)
chain: MGSSHHHHHHLQVDAKYAKEADHAQQEIFALPNLTRRQYTAFIIKLLDDPSQSSELLSEAKKLNDSQAPKVD
notes: also called His6-Z12974

Kd [11]: 6.7 nM
B12: His6-tagged Z18760 (designed binder)
chain: MGSSHHHHHHLQVDAKYAKETEAVQMEIFALPNLTRRQYTAFIRKLLDDPSQSSELLSEAKKLNDSQAPKVD
notes: also called His6-Z18760

IC50, TF-1 cell assay (Example 9) [12]: 3.3 nM | Kd [13]: 0.51 nM
B13: His6-tagged Z16065 (designed binder)
chain: MGSSHHHHHHLQVDAKYAKEVEEAQMEIFALPNLTRRQYTAFIRKLLDDPSQSSELLSEAKKLNDSQAPKVD
notes: also called His6-Z16065

IC50, TF-1 cell assay (Example 9) [12]: 3.3 nM | Kd [13]: 0.76 nM
B14: His6-tagged Z16163 (designed binder)
chain: MGSSHHHHHHLQVDAKYAKEVERAQMEIFELPNLTRRQYTAFIRKLLDDPSQSSELLSEAKKLNDSQAPKVD
notes: also called His6-Z16163

IC50, inhibition of IL-1B induced proliferation of TF-1 cells [9]: 35 nM | Kd [10]: 89 nM
B16: His6-tagged Z12975 (designed binder)
chain: MGSSHHHHHHLQVDAKYAKEAHNAQQEIYRLPNLTRRQYTAFIIKLLDDPSQSSELLSEAKKLNDSQAPKVD
notes: also called His6-Z12975
